Hit rate of the full screen: of about 410,000 compounds, about 6,400 (1.6%) were called active. The shares of active, inactive and inconclusive entries below differ from those in the screen. Calls come from the whole dose curve; as a rule, active = well fitted inhibition curve with a large enough effect; inconclusive = small, poorly fitted or top-dose-only effect; inactive = no such curve, though single readings can be large or run the other way. No potency is given beside an inconclusive call; the fits are too rough.
target: Glucagon-like peptide 1 receptor (Homo sapiens) (UniProt P43220); experiment: qHTS of GLP-1 Receptor Inverse Agonists (Inhibition Mode); settings: HEK293 GLP-1R CRE-luciferase, luminescence, 24 h, GLP-1R form is constitutively active; series mostly up to 38.3 µM; note: nearly all actives have a fitted effect of over 55% in size
Procedure, shortened: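 Inverse agonism was detected as reduced cAMP-driven luciferase luminescence after 24 h compound treatment. The cells were HEK293 clones expressing constitutively active human GLP-1R with the reporter. Reporter-only and GPR119 cell lines served as counterscreen controls.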
Potency is the fitted concentration of half-maximal effect; tags give direction and shape of the fitted curve.

Sequence of UniProt P43220 (P43220 whole entry, looked up): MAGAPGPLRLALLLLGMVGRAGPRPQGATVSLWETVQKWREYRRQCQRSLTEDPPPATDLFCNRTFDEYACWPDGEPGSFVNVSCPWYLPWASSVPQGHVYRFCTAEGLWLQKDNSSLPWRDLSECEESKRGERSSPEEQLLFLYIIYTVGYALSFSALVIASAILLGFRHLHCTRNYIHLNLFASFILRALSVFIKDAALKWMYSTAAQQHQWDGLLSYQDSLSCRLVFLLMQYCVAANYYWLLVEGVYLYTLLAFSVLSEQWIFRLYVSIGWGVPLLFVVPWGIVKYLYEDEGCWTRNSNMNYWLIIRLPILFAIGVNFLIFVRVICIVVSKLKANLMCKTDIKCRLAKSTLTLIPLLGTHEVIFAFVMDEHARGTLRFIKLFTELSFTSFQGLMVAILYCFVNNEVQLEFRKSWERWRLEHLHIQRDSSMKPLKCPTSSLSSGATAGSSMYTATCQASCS

**Q.** With `CCC1(C)Cc2c(sc3c2c2ncnn2c2nnc(SCC(=O)NCc4ccco4)n32)CO1` (stereo not given) as the compound, how does the Potency read?
**A.** inconclusive [inhibitor, single point]

**Q.** Which Potency does the source give for `COc1ccc(OCC(=O)N/N=C/C=C/c2ccccc2)cc1` here?
**A.** inconclusive [inhibitor, single point]

**Q.** Which Potency does the source give for `COc1ccc(CC(N)c2csc(Nc3ccc(C(C)=O)cc3)n2)cc1` (stereo not given) here?
**A.** inconclusive [inhibitor, single point]

**Q.** Which Potency does the source give for `COc1ccc(CN2CSC(=S)N(Cc3ccc(OC)cc3)C2)cc1` here?
**A.** inconclusive [inhibitor, single point]

**Q.** With `COc1ccccc1-c1n[nH]c(=S)o1` as the compound, how does the Potency read?
**A.** inactive

**Q.** With `Cc1nn(C(=O)c2cccc([N+](=O)[O-])c2C)c(C)c1S(=O)(=O)N1CCCCCC1` as the compound, how does the Potency read?
**A.** inactive

**Q.** How did the Potency turn out when `CCOC(=O)c1cccc(NC(=O)CN(c2ccc(C)cc2)S(=O)(=O)c2c(C)noc2C)c1` was run?
**A.** inconclusive [inhibitor, single point]

**Q.** How did the Potency turn out when `Cc1cc(Br)cn2c(Cc3ccsc3)c(-c3ccco3)nc12` was run?
**A.** inconclusive [inhibitor, single point]

**Q.** With `O=C(Nc1nccs1)c1csc([C@H]2C[C@H](O)[C@@H](CO)O2)n1` as the compound, how does the Potency read?
**A.** inconclusive [inhibitor, single point]

**Q.** With `CCN1CCN(c2ccc(NC(=O)c3ccc(Cl)c(S(=O)(=O)N4CCCC4)c3)cc2)CC1` as the compound, how does the Potency read?
**A.** active: 3.55 µM

**Q.** How did the Potency turn out when `Cc1nc(N2CCN(c3ccccn3)CC2)c2c(C)c(C(=O)Nc3ccc(F)cc3F)sc2n1` was run?
**A.** inactive

**Q.** For `CC(C)CN(C(=O)COC(=O)c1cc(=O)[nH]c2ccccc12)c1c(N)n(Cc2ccccc2)c(=O)[nH]c1=O`, which Potency is on record?
**A.** inactive

**Q.** Which Potency does the source give for `CCCCN(C(=O)c1cccc(S(=O)(=O)N2CCN(Cc3ccccc3)CC2)c1)c1ccccc1` here?
**A.** inconclusive [inhibitor, single point]

**Q.** With `Cc1cccc(NC(=S)N2CCN(S(=O)(=O)c3ccc(F)cc3)CC2)c1` as the compound, how does the Potency read?
**A.** inactive

**Q.** `CSCCC(NC(=O)COc1ccccc1)C(=O)N1CC(C)CC(C)C1` (stereo not given) was tested. Which Potency did it give?
**A.** inconclusive [inhibitor, single point]

**Q.** For `Cc1c(Cl)ccc2sc(N3CCN(C(=O)C4CC4)CC3)nc12`, which Potency is on record?
**A.** inconclusive [inhibitor, single point]

**Q.** With `COc1ccc(S(=O)(=O)NC(C(C)C)C(C)C)cc1OC` as the compound, how does the Potency read?
**A.** inconclusive [inhibitor, single point]

**Q.** For `O=C(CN1CCCc2ccccc21)N/N=C/c1ccccc1O`, which Potency is on record?
**A.** inconclusive [inhibitor, full curve, poor fit]

**Q.** How did the Potency turn out when `Cc1cc([N+](=O)[O-])cnc1NC(C)c1ccccc1` (stereo not given) was run?
**A.** inconclusive [inhibitor, single point]

**Q.** How did the Potency turn out when `Cc1ccc2c(c1)CCCN2C(=O)c1cc(C)c(C)s1` was run?
**A.** inconclusive [inhibitor, partial curve, poor fit]

**Q.** Which Potency does the source give for `CN(Cc1cccc2ccccc12)C(=O)c1cc(COc2c(F)cccc2F)on1` here?
**A.** active: 10 µM

**Q.** For `Nc1nc(NC(=O)c2cccs2)nn1-c1ccccc1`, which Potency is on record?
**A.** inconclusive [inhibitor, single point]

**Q.** With `COc1cccc(NC(=O)CSc2c3c(nc4ccccc24)CCCC3)c1` as the compound, how does the Potency read?
**A.** inconclusive [inhibitor, single point]

**Q.** With `COc1ccccc1Oc1cn[nH]c1-c1ccc(OCC(=O)NN)cc1O` as the compound, how does the Potency read?
**A.** inconclusive [inhibitor, partial curve, poor fit]

**Q.** With `Cc1cc(C)cc(SCc2noc(C(=O)NCC3CC3)c2C(=O)NCC2CC2)c1` as the compound, how does the Potency read?
**A.** active: 8.91 µM

**Q.** With `CC(=O)Nc1ccc(-c2csc(Nc3ncccn3)n2)cc1` as the compound, how does the Potency read?
**A.** inactive

**Q.** For `COc1ccc(S(=O)(=O)NCC(c2ccc(N(C)C)cc2)N2CCc3ccccc32)cc1F` (stereo not given), which Potency is on record?
**A.** inconclusive [inhibitor, single point]

**Q.** For `COc1ccc(NC(=O)C(c2ccccc2)n2c(=O)c(-c3cc4ccccc4[nH]3)nc3ccccc32)cc1` (stereo not given), which Potency is on record?
**A.** inconclusive [inhibitor, full curve, poor fit]

**Q.** `O=C(Cc1cccc2ccccc12)Nc1ccccc1` was tested. Which Potency did it give?
**A.** inconclusive [inhibitor, single point]

**Q.** `O=C(O)C1C2CCC(O2)C1C(=O)Nc1ccc(OC(F)F)cc1` (stereo not given) was tested. Which Potency did it give?
**A.** inconclusive [inhibitor, single point]

**Q.** How did the Potency turn out when `O=C1N/C(=C\c2ccc(O)cc2)C(=O)c2ccccc21` was run?
**A.** inactive

**Q.** Which Potency does the source give for `CCOC(=O)c1ccccc1NC(=O)COC(=O)CC(C)(C)CC1=NS(=O)(=O)c2ccccc2N1` here?
**A.** inconclusive [inhibitor, single point]

**Q.** Which Potency does the source give for `Cc1cc(C)n2nc(CNS(=O)(=O)c3ccccc3)nc2n1` here?
**A.** inactive

**Q.** `Cn1c(SCC(=O)NN2C(=O)NC(C)(c3ccccc3)C2=O)nnc1-c1ccncc1` (stereo not given) was tested. Which Potency did it give?
**A.** inactive

**Q.** How did the Potency turn out when `CC1CCc2c(c3ccccc3n2C(=O)CCl)C1` (stereo not given) was run?
**A.** inconclusive [inhibitor, partial curve, poor fit]

**Q.** For `CCC1(c2ccc(F)cc2)NC(=O)N(CC(=O)N2c3ccccc3CC2C)C1=O` (stereo not given), which Potency is on record?
**A.** inconclusive [inhibitor, partial curve, poor fit]

**Q.** With `O=C(CC1NCCc2ccccc21)Nc1ccc(Oc2ccccc2)cc1` (stereo not given) as the compound, how does the Potency read?
**A.** inconclusive [inhibitor, partial curve]

**Q.** How did the Potency turn out when `CCOC(=O)c1cccc(NC(=O)N2CC=C(c3c[nH]c4ccccc34)CC2)c1` was run?
**A.** inconclusive [inhibitor, single point]

**Q.** How did the Potency turn out when `CCOC(=O)C1(CCOC)CCN(Cc2cnc(-c3cccc(C)c3)nc2)CC1` was run?
**A.** inconclusive [inhibitor, single point]

**Q.** `COc1cccc(S(=O)(=O)N(C)C[C@H]2Oc3cc(Br)ccc3S(=O)(=O)N([C@@H](C)CO)C[C@H]2C)c1` was tested. Which Potency did it give?
**A.** inconclusive [inhibitor, single point]

**Q.** For `CC(=O)c1ccc(NC(=O)CC2Oc3ccc(C)cc3NC2=O)cc1` (stereo not given), which Potency is on record?
**A.** inactive

**Q.** For `Cc1ccnc(Nc2nc(-c3ccc(O)c(O)c3)cs2)c1`, which Potency is on record?
**A.** inactive

**Q.** With `CN(CC(=O)Nc1cc([N+](=O)[O-])ccc1Cl)Cc1ccc(Br)cc1` as the compound, how does the Potency read?
**A.** inactive

**Q.** `COc1ccc(OC)c(NC(=O)N2CC3CCCN3c3ccccc32)c1` (stereo not given) was tested. Which Potency did it give?
**A.** inconclusive [inhibitor, partial curve, poor fit]

**Q.** How did the Potency turn out when `Cc1cc(Nc2ccc(Br)c(C)c2)n2nc(-c3ccco3)nc2n1` was run?
**A.** inconclusive [inhibitor, single point]

**Q.** Which Potency does the source give for `COc1ccc(-c2ccc3c(c2)S(=O)(=O)c2cccc(C(=O)N4CCN(c5ccccn5)CC4)c2C3=O)cc1OC` here?
**A.** inactive

**Q.** Which Potency does the source give for `O=C(CNC(=O)c1cccc(F)c1)N/N=C/c1ccc([N+](=O)[O-])s1` here?
**A.** inconclusive [inhibitor, single point]

**Q.** For `NC(=NCCc1ccccc1)NS(=O)(=O)c1ccc2ccccc2c1`, which Potency is on record?
**A.** inconclusive [inhibitor, partial curve]

**Q.** Which Potency does the source give for `O=C(NCCCc1ccccc1)c1cc(COc2c(F)cccc2F)on1` here?
**A.** inconclusive [inhibitor, partial curve, poor fit]

**Q.** With `COc1ccccc1N1CCN(Cc2nc(N)nc(Nc3ccc(C)c(Cl)c3)n2)CC1` as the compound, how does the Potency read?
**A.** active: 2.24 µM

**Q.** How did the Potency turn out when `COc1cccc(NC(=O)C2CCN(S(=O)(=O)c3ccc4[nH]c5c(c4c3)CCCCC5)CC2)c1` was run?
**A.** inconclusive [inhibitor, partial curve]

**Q.** How did the Potency turn out when `Cc1cc(C)n(-c2nc(C)c(C)c(=O)n2CC(=O)Nc2cccc([N+](=O)[O-])c2)n1` was run?
**A.** inactive

**Q.** Which Potency does the source give for `CC1(C(=O)OCC(=O)NC(=O)NCc2ccccc2)CC1(Cl)Cl` (stereo not given) here?
**A.** inconclusive [inhibitor, partial curve, poor fit]

**Q.** Which Potency does the source give for `Cc1cccc(NCc2nnc(-c3ccccc3)o2)c1C` here?
**A.** inconclusive [inhibitor, partial curve]

**Q.** How did the Potency turn out when `COCCNC(=O)c1ccc2c(Cl)c3c(nc2c1)CCC3` was run?
**A.** inactive

**Q.** `C=C1CCN(Cc2ccccc2)S(=O)(=O)c2ccccc21` was tested. Which Potency did it give?
**A.** inconclusive [inhibitor, partial curve, poor fit]

**Q.** `O=C1NC[C@H](CCCCN2C[C@H](Cc3ccccc3)N(CCc3ccccc3)C(=O)C2=O)N(CCC2CCCCC2)C1=O` was tested. Which Potency did it give?
**A.** inconclusive [inhibitor, single point]

**Q.** For `Cc1ccc2nc(N(CCN(C)C)C(=O)C3CCN(S(=O)(=O)c4cccs4)CC3)sc2c1`, which Potency is on record?
**A.** inconclusive [inhibitor, single point]

**Q.** For `CO/N=C(\Cn1ncc(N2CCCC2)c(Cl)c1=O)c1ccc(Cl)cc1`, which Potency is on record?
**A.** inconclusive [inhibitor, full curve, poor fit]

**Q.** For `CCCc1c(C(=O)Nc2ccc(F)cc2C)cnn1-c1ccccc1`, which Potency is on record?
**A.** inconclusive [inhibitor, partial curve, poor fit]

**Q.** Which Potency does the source give for `Cc1cc2nc(CCN(C(=S)NCC3CCCO3)C3CCCC3)[nH]c2cc1C` (stereo not given) here?
**A.** inconclusive [inhibitor, single point]

**Q.** With `COc1cccc(NC(=O)c2oc3ccc(S(=O)(=O)N4CCCCCC4)cc3c2C)c1` as the compound, how does the Potency read?
**A.** inconclusive [inhibitor, full curve, poor fit]

**Q.** For `CCCC1=Nc2cc(C(=O)NCCN3CCOCC3)ccc2Sc2ccccc21`, which Potency is on record?
**A.** inconclusive [inhibitor, partial curve, poor fit]

**Q.** How did the Potency turn out when `c1ccc(-c2cc3c(NCC4COc5ccccc5O4)ncnc3s2)cc1` (stereo not given) was run?
**A.** inconclusive [inhibitor, single point]

**Q.** For `Cc1cc(NC(=O)CN2C(=O)NC3(CCCCC3)C2=O)ccc1N1CCCC1`, which Potency is on record?
**A.** inconclusive [inhibitor, single point]
